# According to ChEMBL document CHEMBL4888484, “Replenishing the malaria drug discovery pipeline: Screening and hit evaluation of the MMV Hit Generation Library 1 (HGL1) against asexual blood stage Plasmodium falciparum ,using a nano luciferase reporter read-out” (2022):
# Hit rate of the full screen: of about 150,000 compounds, about 540 (0.36%) showed an effect of 50% or more. The list shows a part of the results.
# Test system: Plasmodium falciparum
# Experiment: Primary screen in NF54 nanoGlo assay, in single point, at 2uM, 72h; a lower Z score goes with more inhibition
# Type: functional, Erythrocyte
# Conditions: timepoint 72 hour
SMILES,% Inhibition [%],Z score
O=C1CC(C2CCCCN2Cc2ccsc2)CN1 (configuration not stated),-9,1.18
Cn1cc(C(=O)C(=O)NCC2(c3ccccc3)CC2)cn1,-12,1.51
CCCc1nc(C)cc(N[C@H]2CCN(CC(=O)N(C)C)C[C@@H]2O)n1,15,-1.98
COCCNC(=O)[C@H]1C[C@H](Oc2ccccc2)CN1CC1CC1,-5,0.94
CC(=O)c1sc(Nc2cccnc2)nc1C,0,0.04
CN1CCCN(C(=O)c2ccc3c(c2)n(CC2CC2)c(=O)n3C2CCCCC2)CC1,2,-0.39
Cc1ccc(-c2ccc(CCC(=O)N3CC(C)OC(C)C3)n2-c2ccc(CC#N)cc2)c(C)c1 (configuration not stated),-15,1.56
O=C1NCCN(C(=O)NCc2csc3c2CCCC3)[C@H]1c1cccc(F)c1,-6,1.17
Cc1cccc(NC(=O)N(C)CCc2noc(C(=O)NCc3ccc4c(c3)OCO4)n2)c1,-24,2.2
c1cn(CCc2cn[nH]c2)c(-c2ccc3nonc3c2)n1,9,-1.22
O=S1(=O)CCC(Cc2nc(COc3ccccc3)nn2CCO)CC1,-2,0.21
CN(C)C(=O)[C@@H]1CN(c2nccnc2C#N)CCO1,7,-0.94
Cc1nc(-c2c(C)noc2C)sc1C(=O)N1CC2(CCC2)c2ccccc21,-7,1.07
CC(OC(=O)C1Cc2cc(Cl)ccc2O1)C(=O)Nc1ccc(S(N)(=O)=O)cc1 (configuration not stated),2,-0.26
N[C@H]1CCc2cc(C(=O)NCC3(c4ccccc4)CC3)ccc2NC1=O,-11,1.75
O=C(NCCc1ccco1)c1ccc2c(c1)nc1n2CCCC1,-18,2.5
O=C(NCCc1c[nH]cn1)[C@@H]1C[C@H]2C(=O)NCCCCCCN(S(=O)(=O)c3ccc4c(c3)CCC4)[C@H]2C1,-20,2.61
CCOC1CN(C(=O)Cc2c(CC)nn(C)c2CC)C1,-12,1.26
C[C@H]1CN(C(=O)NCc2ccncc2OCC(F)(F)F)CCCO1,-2,0.32
CCOc1ccccc1NC(=O)c1cc2n(n1)[C@H](C(F)(F)F)C[C@H](c1ccco1)N2,-4,0.83
C[C@H](O)c1cc2n(n1)CCN(C1CCN(C(=O)c3ccccc3)CC1)C2,-3,0.41

SMILES,% Inhibition [%],Z score
CC(C)c1c(C(=O)N2CCN(c3ccccc3)CC2)cnn1-c1nccc(-c2ccco2)n1,8,-1.15
CC(=O)NC1(c2noc(CCn3cc(C)cn3)n2)CCCCCC1,-8,0.89
COc1ccc2c(c1)C=C(CN1CCCn3nc([C@H](C)O)cc3C1)CO2,4,-0.47
O=C(N1CCC(O)CC1)C(F)(F)Cl,33,-0.97
CC(=O)CCC(=O)N1CCOCC1C1CCCCC1O (configuration not stated),-2,0.32
OCCC[C@H]1CCCN(c2nc3nonc3nc2NC2CC2)C1,10,-1.3
CCc1cc(N2CCO[C@H](c3nc(C)cs3)C2)nc(CC)n1,-16,1.79
CC(C)C[C@H]1COCCN1Cc1ccc(C#CCO)s1,0,-0.02
C[C@H]1C(=O)N(c2ccccc2)CCN1c1nc(N)nc2[nH]ncc12,-7,1.24
CC1CCN(c2nccnc2Oc2ccc(C(=O)NCc3ccco3)cc2)CC1,-1,0.13
O=C(c1ccc2ncsc2c1)N1CCc2sccc2[C@H]1c1ccccc1,-8,0.93
Cc1cccnc1CN(C)C(=O)CC[C@H](C)N1CCOCC1,-8,1.08
Cc1ccncc1CC(=O)Nc1cc(Cl)c(OCC(F)(F)F)c(Cl)c1,-14,2.26
O=C(c1ccco1)N1CCC(n2cc(-c3nc(C4CC4)no3)nn2)CC1,-14,2.47
CC1CN2CCCC2CN1S(=O)(=O)CCC1CCOCC1 (configuration not stated),-8,1.19
O=C1N[C@H]2CC[C@@H]1CN(C(=O)c1ccc(-c3cc(O)c(F)c(F)c3)cc1)C2,-14,1.77
NC(=O)C1=NO[C@@H](CNC(=O)NCCOc2ccc3c(c2)OCO3)C1,26,-2.95
COc1cccc(C(=O)N2CCC(CN3C[C@@H](C(=O)NCC4CC4)CC3=O)CC2)c1OC,-3,0.39
CCc1nn(C)c(CC)c1CN1CC(=O)N[C@@H](C)C1,1,-0.13
O=C(CCS(=O)(=O)c1ccc(Cl)cc1)Nc1nnc(-c2ccccc2Cl)o1,-13,2.1
